Assay results: PubChem BioAssay AID1508642 (National Center for Advancing Translational Sciences (NCATS), 2021)
The campaign covered roughly 43,000 compounds. About 200 (0.47%) were called active. Not shown: some 12% with an inconclusive outcome. Calls come from the whole dose curve; as a rule, active = well fitted cell-killing curve with a large enough effect; inconclusive = small, poorly fitted or top-dose-only effect, or effect the other way; inactive = flat fitted curve, though single readings scatter. The list shows a part of the results.

Experiment: Cell viability qHTS assay in S16 Pmp22-F2sN cells; note: nearly all actives have a fitted effect of over 65% in size
Conditions: S16 Pmp22-F2sN Schwann cells viability, CellTiter-Glo, 24 h; series mostly up to 57.5 µM; activity change, negative = cytotoxicity: at the top concentration
How it was run: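 Viability was measured by CellTiter-Glo luminescence (15 min, room temperature). This followed 24 h at 37 °C of compound exposure (23 nL pin transfer) in S16 Pmp22-F2sN Schwann cells, 500-1,000 per well.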
% is set by controls: 0 for no effect and ±100 for the full control effect.

Row | SMILES | activity change, negative = cytotoxicity
1 | CCOC(=O)c1ccccc1NC(=O)N1CCC(CN2CCOCC2)CC1 | inactive: -4.24%
2 | CCN1CCN(C(c2ccccc2Cl)c2sc3nc(-c4ccco4)nn3c2O)CC1 (stereo unspecified) | inactive: 21.8%
3 | CCOc1ccc(NC(=O)Cn2nc3c(cc2=O)CC(C)CC3)cc1 (stereo unspecified) | inactive: 8.35%
4 | Cc1ccc2c(c1)cc1c(=O)n(Cc3ccccc3Cl)nc(C)n12 | inactive: 7.23%
5 | Cc1ccc2c(C)c(C(=O)N(Cc3ccc(N(C)C)cc3)Cc3ccco3)oc2c1C | inactive: 18.7%
6 | O=C(CCSCCc1ccccn1)Nc1ccc(Cl)cc1 | inactive: 3.32%
7 | CCn1c(=O)c2sccc2n2c(CCC(=O)Nc3ccc(F)cc3)nnc12 | inactive: 12.7%
8 | COc1ccc2c(c1)c(N1CCCC1=O)c(C(=O)Nc1cc(C)c(Cl)cc1OC)n2C | inactive: 28.9%
9 | CCN(c1ccccc1)S(=O)(=O)c1nnc(NC(=O)C2CCCCC2)s1 | inactive: 11%
10 | O=C(NCCc1csc(-c2ccc(C(F)(F)F)cc2)n1)C(=O)Nc1ccc(F)c(Cl)c1 | inactive: 1.66%
11 | CCOc1ccccc1NS(=O)(=O)c1ccc(N2CCCCS2(=O)=O)cc1 | inactive: -1.52%
12 | CCOC(=O)c1c(N)n(-c2ccc(CC)cc2)c2nc3ccccc3nc12 | inactive: 2.38%
13 | CC(=O)Nc1ccc(C)cc1-c1nc2ccccc2n(CC(=O)c2ccc(C)c(C)c2)c1=O | inactive: 11.2%
14 | CN1CCN(c2nc3c(S(=O)(=O)c4ccc(Cl)cc4)nnn3c3ccsc23)CC1 | inactive: 4.81%
15 | COc1ccc(S(=O)(=O)n2nc(C)c(S(=O)(=O)N3CCCCCC3)c2C)cc1C | inactive: -0.539%
16 | CC(=O)N1CCOc2cc(S(=O)(=O)NCc3ccccc3Cl)c(Cl)cc21 | inactive: 1.19%
17 | COc1ccc(NC(=O)CSc2nc3ccccc3nc2N2CCCCC2)cc1 | inactive: 19.9%
18 | CCc1ccc(NC(=O)Cn2c(=O)n(-c3ccccc3C)c(=O)c3c2c2cc(OC)ccc2n3C)cc1 | inactive: 25.7%
19 | Cc1ccc(C)c(NC(=O)Cn2c(SCC(=O)NCc3ccccc3)nc3ccccc32)c1 | inactive: 4.3%
20 | Cc1ccc(N(CC(=O)N2CCN(c3ccccc3)CC2)S(=O)(=O)c2c(C)noc2C)cc1 | inactive: 2.79%
21 | Cc1nc(-c2ccc(F)cc2)sc1CCNC(=O)c1cccs1 | inactive: 3.94%
22 | Cc1c2cnn(CC(=O)NCc3ccc(Cl)cc3)c(=O)c2c(C)n1Cc1ccc(F)cc1 | inactive: 2.57%
23 | O=C(Cc1ccc(F)cc1)NCCc1csc2nc(-c3ccccc3F)nn12 | inactive: -8.7%
24 | COc1ccc(CCNS(=O)(=O)c2c(C)nc3sccn3c2=O)cc1OC | inactive: 6.15%

Row | SMILES | activity change, negative = cytotoxicity
25 | COc1ccc(C(CNC(=O)c2oc3cc(C)c(C)cc3c2C)N2CCCCC2)cc1 (stereo unspecified) | inactive: 16.3%
26 | CCn1cc(C(=O)N2CCN(c3ccccc3)CC2)c(=O)c2cc(S(=O)(=O)N(C)C)ccc21 | inactive: -4.52%
27 | Cc1cc(C)cc(NC(=O)CSc2ccc(-c3cccs3)nn2)c1 | inactive: -10.9%
28 | Cc1ccccc1Nc1nn2c(=O)c3ccc(C(=O)NCc4cccs4)cc3nc2s1 | inactive: -27.1%
29 | Cc1cc(NS(=O)(=O)c2ccc(NC(=O)COc3ccccc3Br)cc2)no1 | inactive: 10.8%
30 | O=C(CCc1ccccc1)NC1CC(=O)N(c2cccc(F)c2)C1 (stereo unspecified) | inactive: -1.64%
31 | CCC(=O)N1CCc2cc(S(=O)(=O)NC(CC(C)C)C(=O)Nc3cccc(C)c3C)ccc21 (stereo unspecified) | inactive: -7.94%
32 | CN(C)c1ccc(CNC(=O)CN2C(=O)C3CCCCN3c3ccc(C(=O)N4CCCC4)cc32)cc1 (stereo unspecified) | inactive: 10.9%
33 | COc1ccc(CCNc2ncnc3c2cnn3-c2ccc(C)c(Cl)c2)cc1 | inactive: 12.9%
34 | Cc1ccc(NS(=O)(=O)c2ccc3oc(=O)c4ncn(C)c4c3c2)cc1C | inactive: 0.0626%
35 | O=C(CCC1N=C2c3ccccc3N=C(SCc3ccc(Cl)cc3)N2C1=O)NCc1cccs1 (stereo unspecified) | inactive: 12%
36 | CCC(C)NC(=O)c1cc2n(n1)CCCN(Cc1ccc(C)cc1)C2=O (stereo unspecified) | inactive: -17.5%
37 | Cc1ccc(N2CCN(C(=O)c3cccn4c(=O)c5ccc(Cl)cc5nc34)CC2C)cc1 (stereo unspecified) | inactive: 6.68%
38 | COc1cccc(N2CCN(C(=O)c3cnn(-c4ccccc4Cl)c3C3CCN(C(=O)OC(C)(C)C)CC3)CC2)c1 | inactive: -10.7%
39 | CCCCc1ccc(NS(=O)(=O)c2cc3c4c(c2)CC(=O)N4CCC3)cc1 | inactive: -4.8%
40 | CCOCCCNC(=O)c1ccc2c(=O)n(CCc3ccccc3)c(=O)[nH]c2c1 | inactive: 0.215%
41 | CCc1ccc2oc(-c3cc(NC(=O)c4cc(OC)c(OC)c(OC)c4)ccc3O)nc2c1 | inactive: -8.88%
42 | CC(=O)c1ccc(NC(=O)CSc2nc(=O)n(Cc3ccccn3)c3c2CCC3)cc1 | inactive: 4.84%
43 | COc1cccc(NC(=O)C2CCC(CNS(=O)(=O)c3csc(C(N)=O)c3)CC2)c1 (stereo unspecified) | inactive: 2.02%
44 | COc1cc(NC(=O)C2CCN(c3cnccn3)CC2)cc(OC)c1 | inactive: -6.4%
45 | O=C(Cn1c(=O)n(Cc2ccco2)c(=O)c2oc3ccccc3c21)Nc1ccccc1 | inactive: -4%
46 | COc1cccc(-c2cn3c(n2)sc2cc(C(=O)NC4CCCCC4)ccc23)c1 | inactive: 7.37%
47 | CCc1ccccc1Nc1nn2c(=O)c3ccc(C(=O)NC(C)C)cc3nc2s1 | inactive: 14.9%
48 | CCN(CCCNC(=O)c1cc2c(=O)n(C)c3ccccc3c2s1)c1ccccc1 | inactive: -19.4%

Row | SMILES | activity change, negative = cytotoxicity
49 | COc1ccccc1NC(=O)CN1C(=O)C(c2ccc(F)cc2)=NC12CCCCC2 | inactive: 17.1%
50 | COc1ccccc1N1CCN(C(=O)C2CCN(S(=O)(=O)c3cn(C)cn3)CC2)CC1 | inactive: 2.24%
51 | CN1CCN(CCNC(=O)c2cnn(-c3ccc(Cl)cc3)c2C2CCN(C(=O)OC(C)(C)C)CC2)CC1 | inactive: 3.64%
52 | CCN(C(=O)C1CCN(S(=O)(=O)c2c(C)noc2/C=C/c2ccc(C)cc2)CC1)c1cccc(C)c1 | inactive: 4.9%
53 | CCOc1ccc(-c2nonc2NC(=O)c2oc3ccc(CC)cc3c2C)cc1 | inactive: -13.3%
54 | COc1ccc(Cl)cc1NC(=O)c1cnc2sc(N3CCOCC3)nn2c1=O | inactive: 12.3%
55 | Cc1ccc(CNC(=O)c2cnc3c(-c4ccc(F)cc4)c(C)nn3c2C)o1 | inactive: 1.82%
56 | O=C(CCCCCn1c(=O)c2sccc2n(Cc2ccccc2Cl)c1=O)NCc1ccc2c(c1)OCO2 | inactive: -4.62%
57 | Cc1ccc(S(=O)(=O)Nc2ccc3nc(-c4cccc(Cl)c4)oc3c2)cc1 | inactive: 5.71%
58 | COc1ccc(CCNC(=O)C(C)n2nc(C)c3sc4ccccc4c3c2=O)c(OC)c1 (stereo unspecified) | inactive: -0.307%
59 | CCC(=O)N1CCc2cc(S(=O)(=O)NC(Cc3ccccc3)C(=O)O)ccc21 (stereo unspecified) | inactive: 12%
60 | COc1ccc(NC(=O)CSc2nc3ccccc3c(=O)n2CCC(=O)NC2CCCCC2)c(OC)c1 | inactive: 4.5%
61 | Fc1ccc(Nc2nc3ccccc3n3cnnc23)c(F)c1 | inactive: 19.5%
62 | Cc1nc2nc(CNC(=O)c3cccc(F)c3)nn2c(C)c1CCC(=O)Nc1cccc(Cl)c1 | inactive: -7.47%
63 | Cc1nn(C(C)C(=O)Nc2ccccc2C(F)(F)F)c(=O)c2c1sc1ccccc12 (stereo unspecified) | inactive: -0.905%
64 | CC(C)(C)c1ccc(C(=O)Nc2c(C(=O)c3ccc(F)cc3)oc3ccccc23)cc1 | inactive: 21.1%
65 | Cc1ccc(N(CC(C)C)S(=O)(=O)c2nnc(NC(=O)C(C)C)s2)cc1 | inactive: 4.28%
66 | COc1ccccc1CNC(=O)COCc1cc(-c2cccs2)on1 | inactive: 4.25%
67 | COc1ccc(NC(=O)c2nc(-c3ccc(C)cc3)n3c2CCCCC3)cc1 | inactive: -6.5%
68 | COc1cccc(C(=O)N(Cc2nc(-c3ccc(Cl)cc3)no2)C(C)C)c1OC | inactive: -15.1%
69 | COc1ccc(Oc2nc3c(c(=O)n(Cc4ccc(Br)cc4)c(=O)n3C)n2C)cc1 | inactive: -2.73%
70 | O=C(c1ccc(F)cc1)n1nc(-c2cccnc2)nc1NCc1ccccc1 | inactive: -3.4%
71 | COc1ccc(-n2ccnc(NCCc3ccccc3)c2=O)cc1OC | inactive: -23.6%
72 | CC(C)c1ccc(N(CC(=O)O)S(=O)(=O)c2ccc3[nH]c(=O)c(=O)[nH]c3c2)cc1 | inactive: 3.84%

Row | SMILES | activity change, negative = cytotoxicity
73 | Cc1ccc2oc(C(=O)Nc3ccc(S(=O)(=O)Nc4nccc(C)n4)cc3)cc(=O)c2c1 | inactive: -4.14%
74 | COc1ccc(Br)cc1CNC(=O)CN1C(=O)c2cccnc2Oc2ccc(C)cc21 | inactive: 3%
75 | Cc1ccc2ncc3c(-c4ccc(F)cc4)nn(CC(=O)Nc4ccccc4C)c3c2c1 | inactive: 4.15%
76 | COc1ccc(-c2nc3sc(CCNS(=O)(=O)c4ccccc4)c(C)n3n2)cc1 | inactive: 8.97%
77 | Cc1ccc2[nH]c3c(=O)n(CC(=O)Nc4ccc(Br)cc4C)ncc3c2c1 | inactive: 17.8%
78 | CCOc1ccc(C(=O)Nc2cc3c(cc2N2CCCC2)n(C)c(=O)c(=O)n3C)cc1OCC | inactive: 1.44%
79 | CSc1ccc(CCNC(=O)CCCn2c(=O)c3cccn3c3ccccc32)cc1 | inactive: 5.52%
80 | CSc1ncc2c(n1)-c1ccccc1N(Cc1ccccc1)S2(=O)=O | inactive: -3.08%
81 | COc1cc(NS(=O)(=O)c2ccc(NC(=O)c3ccc(Cl)cc3Cl)cc2)nc(OC)n1 | inactive: 11.2%
82 | CNC(=O)c1c(NC(=O)/C=C/c2ccccc2)sc2c1CCC2 | inactive: -11.6%
83 | Cc1ccc2nc(-c3ccc(NC(=O)COc4ccc(Br)cc4Br)cc3)sc2c1 | inactive: 4.84%
84 | COc1ccc(NC(=O)C2CCCN(S(=O)(=O)c3c(C)[nH]c(=O)[nH]c3=O)C2)c(OC)c1 (stereo unspecified) | inactive: -1.44%
85 | O=C(NCc1ccc(F)cc1)C(=O)NCC(c1ccc2c(c1)OCO2)N1CCOCC1 (stereo unspecified) | inactive: -0.684%
86 | Cc1cccc(-c2nc3nc(C)cc(NC(C)c4ccccc4)n3n2)c1 (stereo unspecified) | inactive: 0.211%
87 | COc1ccc(C(=O)N(Cc2ccco2)Cc2ccc(C)o2)cc1 | inactive: -1.14%
88 | Cc1ccccc1NC(=O)/C(C#N)=C/c1ccc(Cl)cc1Cl | inactive: 7.45%
89 | CCc1ccc(NCc2cc3cc4c(cc3n(CC(=O)Nc3ccccc3C)c2=O)OCCO4)cc1 | inactive: 0.782%
90 | CCOC(=O)c1ccc(NC(=O)CC(=O)Nc2ccc3nc4n(c(=O)c3c2)CCCCC4)cc1 | inactive: -4.3%
91 | Cc1nn2c(C)c(C(=O)NCCc3ccccc3)cnc2c1-c1ccccc1 | inactive: 11.2%
92 | CCOc1ccc(NC(=O)Cn2nnc(-c3nc(-c4ccncc4)no3)c2N)cc1 | inactive: 2.86%
93 | COc1ccc(-c2nc(CS(=O)CC(=O)NCCc3ccc(Cl)cc3)c(C)o2)cc1OC (stereo unspecified) | inactive: -20.4%
94 | CCc1ccc(-n2nc(CO)c(C(=O)NC)n2)cc1 | inactive: 0.25%
95 | CCC(=O)N1CCc2cc(CNS(=O)(=O)c3ccc(CC(C)C)cc3)ccc21 | inactive: -16.5%
96 | CCN1CCN(c2ncc3c(n2)CCN(Cc2ccccc2C)C3)CC1 | inactive: 2.2%
